# Some of the results follow.
# Columns and labels:
# Assay in all cases: glycan array binding signal (z-score within array); higher = stronger binding
# Details in all cases: glycan notation: IUPAC condensed, linker removed
# [1] = molecular target: Fuc(a1-2)Gal(b1-4)GlcNAc(b1-3)Gal(b1-4)GlcNAc(b1-2)Man(a1-3)[Fuc(a1-2)Gal(b1-4)GlcNAc(b1-3)Gal(b1-4)GlcNAc(b1-2)Man(a1-6)]Man(b1-4)GlcNAc(b1-4)GlcNAc
# In short: (§1)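 From the Consortium for Functional Glycomics database, 3228 arrays were curated, keeping only those whose protein sequence was available. Binding is given as a within-array Z-score averaged across arrays sharing a protein sequence and across linkers. Negative Z-scores can be read as non-binding.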
# [2] = molecular target: Fuc(a1-2)Gal(b1-4)GlcNAc(b1-3)Gal(b1-4)GlcNAc(b1-3)Gal(b1-4)GlcNAc
# In short: as §1
# [3] = molecular target: Fuc(a1-2)Gal(b1-4)GlcNAc(b1-3)GalNAc
# In short: as §1
# [4] = molecular target: Fuc(a1-2)Gal(b1-4)GlcNAc(b1-3)[Fuc(a1-2)Gal(b1-4)GlcNAc(b1-6)]GalNAc
# In short: as §1
# [5] = molecular target: Fuc(a1-2)Gal(b1-4)GlcNAc(b1-3)[Fuc(a1-3)[Gal(b1-4)]GlcNAc(b1-6)]Gal(b1-4)Glc
# In short: as §1
# [6] = molecular target: Fuc(a1-2)Gal(b1-4)GlcNAc(b1-6)GalNAc
# In short: as §1
# [7] = molecular target: Fuc(a1-2)Gal(b1-4)GlcNAc6S
# In short: as §1
# [8] = molecular target: Fuc(a1-2)Gal(b1-4)[Fuc(a1-3)]GlcNAc
# In short: as §1
# [9] = molecular target: Fuc(a1-2)Gal(b1-4)[Fuc(a1-3)]GlcNAc(b1-2)Man(a1-3)[Fuc(a1-2)Gal(b1-4)[Fuc(a1-3)]GlcNAc(b1-2)Man(a1-6)]Man(b1-4)GlcNAc(b1-4)[Fuc(a1-6)]GlcNAc
# In short: as §1
# [10] = molecular target: Fuc(a1-2)Gal(b1-4)[Fuc(a1-3)]GlcNAc(b1-2)[Fuc(a1-2)Gal(b1-4)[Fuc(a1-3)]GlcNAc(b1-4)]Man(a1-3)[Fuc(a1-2)Gal(b1-4)[Fuc(a1-3)]GlcNAc(b1-2)Man(a1-6)]Man(b1-4)GlcNAc(b1-4)GlcNAc
# In short: as §1
# [11] = molecular target: Fuc(a1-2)Gal(b1-4)[Fuc(a1-3)]GlcNAc(b1-3)Gal(b1-4)[Fuc(a1-3)]GlcNAc
# In short: as §1
# [12] = molecular target: Fuc(a1-2)Gal(b1-4)[Fuc(a1-3)]GlcNAc(b1-3)Gal(b1-4)[Fuc(a1-3)]GlcNAc(b1-3)Gal(b1-4)[Fuc(a1-3)]GlcNAc
# In short: as §1
# [13] = molecular target: Fuc(a1-2)Gal(b1-4)[Fuc(a1-3)]GlcNAc(b1-3)GalNAc
# In short: as §1
# [14] = molecular target: Fuc(a1-2)Gal(b1-4)[Fuc(a1-3)]GlcNAc(b1-3)[Neu5Ac(a2-6)Gal(b1-4)GlcNAc(b1-6)]Gal(b1-4)Glc
# In short: as §1
# [15] = molecular target: Fuc(a1-2)Gal3S(b1-4)GlcNAc
# In short: as §1
# [16] = molecular target: Fuc(a1-2)Gal6S(b1-3)GlcNAc
# In short: as §1
# [17] = molecular target: Fuc(a1-2)Gal6S(b1-3)GlcNAc6S
# In short: as §1
# Fuc(a1-2)Gal6S(b1-4)Glc = molecular target: Fuc(a1-2)Gal6S(b1-4)Glc
# In short: as §1
# [18] = molecular target: Fuc(a1-2)Gal6S(b1-4)Glc6S
# In short: as §1
# Fuc(a1-2)[Gal(a1-3)]Gal = molecular target: Fuc(a1-2)[Gal(a1-3)]Gal
# In short: as §1
# [19] = molecular target: Fuc(a1-2)[Gal(a1-3)]Gal(b1-3)GalNAc
# In short: as §1
# [20] = molecular target: Fuc(a1-2)[Gal(a1-3)]Gal(b1-3)GalNAc(b1-3)Gal(a1-4)Gal(b1-4)Glc
# In short: as §1
binder,measurement,setting,value
"Cp ZmpB (Clostridium perfringens), Q0TR08 (protein) MNKRKIAAIILATMITNLSATTIDVLAQELNTKNNSKVEVSHDDESHQARVSKFDLYNSDKLDAYNQEFQVSRSNIKSINNNGGKYNSSTIDKAIDGNLETHWETGKPNDANFTNEVVVTFNEITNIDRIVYSARRDSARGKGFAKEFEIYASLKDEGDDFNLVSSGEYTESTRDLVEIKFNPTDFKRLKFKFKKADQNWASAAEFMFYKEDKLNEKFNGLFTDSSMNKVSEEFNTLEKLNAFENELKDHPIYDLYKEGLNNARAILTETSENPTKATLGQITYNLNDDYNNQYRMPYKNIKAIKNNGRHYAAQNIEKAIDNDVNTYWETGTLNSSSFNNEVEVEFNDLVTLDRIVYGSRQSDLKGFAEEVYIYASRTSKGDTYKLVATGAHEATKGLVEAKFEPTEFKRVKFKFKKSKQNSATLNELMFYKPDEVYSSIPKLFTDGTMSELSEEFNSLEKINAFKEKAKNHPLYNDFNETIELAESLISNPRKEDVLELEMRGDSISEAKKRKVWNFQDWQITGLSARAGDKITVYVDVAEGDPTPTLLYKQSLTQHGGATSFQLKPGKNEITIPEINYESNGIPKDVIQGGDLFFTNYKSDSQKRAPKVRIEGASKYPVFILGKSDENEVMKELEAYVEKIKAEPKTTPNIFAVSSNKSLEFVQATYALDWYKKNNKTPKYTAEQWDQYIADAMGFWGFDNSKDVNSDFNFRIMPMVKNLSGGAFMNAGNGVIGIRPGNQDAILAANKGWGVAHELGHNFDTGGRTIVEVTNNMMPLFFESKYKTKTRITDQNIWENNTYPKVGLDDYSNNELYNKADSTHLAQLAPLWQLYLYDNTFYGKFERQFRERDFGNKNREDIYKSWVVAASDAMELDLTEFFARHGIRVDDKVKEDLAKYPKPDKKIYYLNDLAMNYKGDGFTENAKVSVSTSGSNGNIKLSFSVDDENKDNILGYEIRRDGKYVGFTSNDSFVDTKSNLDEDGVYVVTPYDRKLNTLNPIEVNALQPTLSVNPVITLALGEEFNEEEYIVAKDIKGNSLSESVKVKSSNVNTSKVGEYEVLYSLEDSKGNEYTKTSKVNVVSRKEYMSDLTPKQSSNGWGTVRKDKSISGGVIGLTRDGDFVDYNKGLGLHSNAEYVYDLEGKDYDYFESYVGVDKAMSSRPASSVIFKVLVDGEEKFNSGVMRSTTPQKYVKVDVKNAKELKLIVNDAGDGDSSDHASFGDAKLATLSSKPIIKGENLAYSMDEKVDLMKGITATDIEDGNITSKVQIKSSDFVEGKSGIFTVVYSVTDSDGLTSECSRTIAVTDKETQLSDLNWKSATIGSGSVRKDRAVSGNQIRLLNEDNSVETFAKGIGTHSYSEIVYNSEGYDIFDTWVGIDRHVADKKVSSVKFKVYVDGELKAETDVMRIDTPKKRLVVDVRNSKEIKLVVDVADNGNNWDHADWADAKFRNLAEYDASELNKAIEEAKKLDLNNYTEESSEALKNAISKGEEALLSKDKETINSALEELNKEMNSLVKVDLNAVINIPDKYLLKSIQNQLNKTGDITLGDMYSLTTLTLSGVEDLTGLENAKNLETLNMDYNEVKDLRPLSKLKKLNTLNAQEQFIAAGELKPSNGKVIGDSKVYNREGKNVAKTIRVVDKNGNTILEQDAKDEFTINTKDLSSGLYGVHVLFEDEGFSGVMFYLFNV",glycan array binding signal (z-score),[1],-0.183
same,glycan array binding signal (z-score),[2],-0.016
same,glycan array binding signal (z-score),[3],0.357
same,glycan array binding signal (z-score),[4],-0.356
same,glycan array binding signal (z-score),[5],-0.084
same,glycan array binding signal (z-score),[6],-0.302
same,glycan array binding signal (z-score),[7],-0.348
same,glycan array binding signal (z-score),[8],-0.118
same,glycan array binding signal (z-score),[9],-0.251
same,glycan array binding signal (z-score),[10],0.471
same,glycan array binding signal (z-score),[11],0.231
same,glycan array binding signal (z-score),[12],-0.268
same,glycan array binding signal (z-score),[13],-0.344
same,glycan array binding signal (z-score),[14],-0.162
same,glycan array binding signal (z-score),[15],0.091
same,glycan array binding signal (z-score),[16],-0.122
same,glycan array binding signal (z-score),[17],-0.142
same,glycan array binding signal (z-score),Fuc(a1-2)Gal6S(b1-4)Glc,0.304
same,glycan array binding signal (z-score),[18],-0.313
same,glycan array binding signal (z-score),Fuc(a1-2)[Gal(a1-3)]Gal,-0.103
same,glycan array binding signal (z-score),[19],-0.276
same,glycan array binding signal (z-score),[20],-0.149
